# Hit rate of the full screen: of about 310,000 compounds, about 2,200 (0.71%) showed an effect of 50% or more. The effect is printed as a negative number. The list shows a part of the results.
# Target: human ether-à-go-go-related gene (hERG) potassium channel (human, UniProt Q12809)
# Assay: primary screen, population patch clamp on CHO cells stably expressing hERG
# human ether-à-go-go-related gene (hERG) potassium channel, sequence (Q12809 whole entry, looked up): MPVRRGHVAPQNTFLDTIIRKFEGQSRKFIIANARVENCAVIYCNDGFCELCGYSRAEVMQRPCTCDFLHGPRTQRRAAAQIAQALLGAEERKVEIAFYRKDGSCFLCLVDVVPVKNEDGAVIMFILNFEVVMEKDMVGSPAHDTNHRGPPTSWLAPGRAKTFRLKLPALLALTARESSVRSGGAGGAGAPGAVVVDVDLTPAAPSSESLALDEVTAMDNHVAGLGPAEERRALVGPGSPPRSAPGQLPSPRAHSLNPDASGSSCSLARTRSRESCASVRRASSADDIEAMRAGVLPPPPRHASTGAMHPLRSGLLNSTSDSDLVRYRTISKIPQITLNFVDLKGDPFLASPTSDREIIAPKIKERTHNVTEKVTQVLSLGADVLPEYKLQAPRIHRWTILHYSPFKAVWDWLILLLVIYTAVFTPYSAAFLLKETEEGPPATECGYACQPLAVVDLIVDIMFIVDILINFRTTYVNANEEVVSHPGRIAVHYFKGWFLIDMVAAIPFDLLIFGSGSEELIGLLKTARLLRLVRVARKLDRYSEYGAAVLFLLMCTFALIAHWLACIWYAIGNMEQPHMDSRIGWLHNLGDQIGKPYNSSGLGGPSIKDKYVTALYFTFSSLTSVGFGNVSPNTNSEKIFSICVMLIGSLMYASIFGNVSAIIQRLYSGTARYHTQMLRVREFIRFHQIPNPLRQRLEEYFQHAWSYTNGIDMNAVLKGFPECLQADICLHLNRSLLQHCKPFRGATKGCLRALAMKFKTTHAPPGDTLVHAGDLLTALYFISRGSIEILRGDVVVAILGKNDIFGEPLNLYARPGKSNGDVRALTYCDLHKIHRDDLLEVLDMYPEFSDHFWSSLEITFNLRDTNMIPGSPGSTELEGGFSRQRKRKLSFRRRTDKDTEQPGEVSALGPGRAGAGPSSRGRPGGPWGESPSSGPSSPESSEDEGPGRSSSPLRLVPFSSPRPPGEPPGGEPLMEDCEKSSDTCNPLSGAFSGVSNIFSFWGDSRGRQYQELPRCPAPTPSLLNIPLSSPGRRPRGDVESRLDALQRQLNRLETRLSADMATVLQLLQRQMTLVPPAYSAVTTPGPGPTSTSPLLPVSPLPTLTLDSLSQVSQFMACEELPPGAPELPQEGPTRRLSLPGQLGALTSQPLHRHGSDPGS
row,Structure (SMILES),"hERG current change (%, negative = inhibition) at 1uM"
1,CC(C)(C)c1cc(NC(=O)CSc2nnc(N)s2)n(-c2ccccc2)n1,-0.657%
2,CSCCC(NC(=O)c1ccco1)C(=O)Nc1ccc(C)c(S(=O)(=O)N2CCOCC2)c1 (stereo not shown),5.26%
3,CC(C)OC(=O)Cn1nnc2c(cnn2-c2ccccc2)c1=O,8.24%
4,NC(=O)c1ccsc1NC(=O)CSc1nc2ccccc2c(=O)n1CCCO,2.67%
5,CCN(CC)S(=O)(=O)c1cc(C(=O)Nc2cccnc2)ccc1Cl,-40.3%
6,CN(c1ccc(C(=O)N2CCCCC2)cc1)S(=O)(=O)c1ccccc1,4.95%
7,Cc1nn(C)c(C)c1/C=C(\C#N)C(N)=O,6.32%
8,CCCCNC(=O)CSc1nc2n[nH]c(C)c2c(=N)n1-c1cccc(Cl)c1C,-1.8%
9,COc1cc(C(=O)Nc2ccc(S(=O)(=O)N(C)c3ccccc3)cc2)cc(OC)c1OC,7.74%
10,Cc1nc(NCC(c2ccccc2)N(C)C)c2c(C)c(C)sc2n1 (stereo not shown),-36%
11,CC(=O)Nc1cccc(NC(=O)CSc2ccc3nnc(CCNC(=O)c4ccccc4)n3n2)c1,7.88%
12,CC1Cc2nc(SCC(=O)NC3CCCCC3)n(C)c(=O)c2S1 (stereo not shown),4.05%
13,CCCCOC(=O)Nc1ccc(N2CCOCC2)cc1,5.16%
14,NS(=O)(=O)c1ccc(CNS(=O)(=O)c2cc(C(=O)O)ccc2Cl)cc1,15.3%
15,Cc1cc(C)cc(NC(=O)C2CCCN(c3ncccn3)C2)c1 (stereo not shown),6.6%
16,COc1cc(OC)cc(OCC(O)Cn2cnc(-c3ccccc3)c2)c1 (stereo not shown),6.31%
17,COC(=O)c1ccc(NC(=O)Nc2ccc3c(c2)nc(C)n3C)cc1,6.26%
18,CCNC(=S)Nn1cnc2ccccc21,-2.17%
19,Cc1ccc(NC(=O)c2sc(Cl)nc2-c2ccccc2)cc1C,-3.34%
20,O=C1CCCc2c1nn(-c1ccccc1)[n+]2[O-],6.47%

row,Structure (SMILES),"hERG current change (%, negative = inhibition) at 1uM"
1,O=C1CSC(c2ccccc2[N+](=O)[O-])N1c1ccc(O)cc1 (stereo not shown),13.2%
2,O=C(CN1C(=O)CS/C1=C\c1nc(-c2ccc(Cl)cc2)cs1)Nc1cccnc1Cl,13.2%
3,Cc1c(C(=O)N2CCCCC2)sc(NC(=O)c2ccco2)c1C#N,10.8%
4,Cc1ccc(C(=O)N(CN2CCCC2=O)c2ccccc2)cc1,7.47%
5,COc1ccc(C2C=C(c3ccc(Br)cc3)Nc3nc(N4C(=O)CCC4=O)nn32)cc1 (stereo not shown),5.92%
6,COc1ccc(-c2csc(NC(=O)c3cc(=O)c4ccccc4o3)n2)cc1OC,11.4%
7,Cc1ccc(NC(=O)N2CCc3ccccc3C2)cc1,8.48%
8,CCCc1[nH]nc2c1C(c1ccc(O)cc1OCC)C(C#N)=C(N)O2 (stereo not shown),10.7%
9,COc1ccccc1CNC(=O)CN1CCN(S(=O)(=O)c2cccs2)CC1,20.9%
10,COC(=O)c1ccc(CNC(=O)CCc2c[nH]c3ccccc23)cc1,11.5%
11,Cc1ccccc1C(=O)NC(=S)NCC1CCCO1 (stereo not shown),6.07%
12,CCN(CC)S(=O)(=O)c1cccc(NC(=O)CCNC(=O)NC23CC4CC(CC(C4)C2)C3)c1,5.69%
13,CC(=O)NCC(=O)OCC(=O)c1ccccc1,3.53%
14,COCCN(C(=O)c1ccccc1F)c1nc(-c2ccc(OC)cc2)cs1,4.47%
15,COc1ccc([C@@H]2CC=C(C(=O)O)CN2S(=O)(=O)c2ccc(Cl)cc2)cc1,2.93%
16,O=C(COc1ccc2oc(-c3ccco3)cc(=O)c2c1)N1CCCCC1,3.1%
17,O=C(CSc1nc2ccccc2o1)N/N=C/c1ccc(C(=O)O)cc1,28.4%
18,CC(C)(C)OC(=O)NCc1n[nH]c(=S)n1C1CC1,13.7%
19,CC(=O)NCCC(=O)Nc1nc(-c2cccs2)c(-c2cccs2)s1,-1.33%
20,CC1(C)CC(=O)C(C=Nc2ccc(Cl)cn2)=C(O)C1,9.04%

row,Structure (SMILES),"hERG current change (%, negative = inhibition) at 1uM"
1,C=CCn1c(SCc2c(C)noc2C)nc2ccccc2c1=O,5.14%
2,Cc1cc2nc(C)n(CCCN)c2cc1C.Cl,10.9%
3,CC(=O)NC1(c2nnnn2CCOC(=O)Nc2ccc(Cl)cc2)CCCCC1,-9.92%
4,COc1ccc(CC(=O)NNC(=O)c2ccco2)cc1,9.94%
5,CC(=O)Cc1c[nH]c2ccccc12,9.66%
6,CN1C(=O)/C(=C\c2cc(Br)cs2)c2ccccc21,12.7%
7,CC(C)OC(=O)CSc1nnc(SCc2cccc3ccccc23)s1,8.14%
8,O=C(NCCCn1ccnc1)c1ccccc1Cl,13.5%
9,N=c1sccn1CC(=O)NC(=O)NC1CCCC1,1.39%
10,CCCN(CCC)C(=O)Cc1coc2ccc3ccccc3c12,8.75%
11,CC(=O)N1CCN=C1SCc1ccc(Cl)cc1,7.81%
12,CC(C)C1N=C2c3ccccc3N=C(SCC(=O)NCCc3ccc(S(N)(=O)=O)cc3)N2C1=O (stereo not shown),14.2%
13,Cc1ccc2sc(N(CCCN(C)C)C(=O)c3ccc(S(=O)(=O)N(C)Cc4ccccc4)cc3)nc2c1C.Cl,-1.03%
14,c1ccc(OCCN2CCN(Cc3nc(-c4ccc5c(c4)OCO5)no3)CC2)cc1,-10.5%
15,CCOc1cc(C#N)c(NC(=O)c2cccnc2)cc1OCC,7.76%
16,c1cncc(-c2nc(N3CCOCC3)c3c4c(sc3n2)CCC4)c1,4.13%
17,CC1(c2ccccc2Cl)NC(=O)N(CC(=O)NCc2ccco2)C1=O (stereo not shown),7.76%
18,CCN(CC)S(=O)(=O)c1ccc(C)c(NC(=O)Cc2ccc(S(=O)(=O)N3CCOCC3)s2)c1,3.53%

# Reference: PMC4336329 (PLoS ONE, 2015)
